# PubChem BioAssay AID743279 (National Center for Advancing Translational Sciences (NCATS), 2014)
# Out of some 360,000 compounds screened, about 17,000 (4.7%) were called active. Inconclusive results, whose numbers are uncertain, are shown with a selection of clear calls. Rule as the data show it: active = activity change below about -50%; inconclusive = mostly about -30% to -49%; inactive = weaker than that.
# Assay: qHTS for Inhibitors of Inflammasome Signaling: IL-1-beta AlphaLISA Primary Screen
# Settings: THP-1 LPS/ATP IL-1B secretion, 16 h; at 57.5 µM, stronger effect = lower value
# Summary of the method: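 THP-1 cells pretreated 1 hr with compounds (up to 57.5 uM final), then stimulated with LPS (250 ng/mL final) plus ATP (1.25 mM final); secreted IL-1B measured by AlphaLISA after 16 hr, decreased signal indicating inhibition.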
# % is scaled to controls: 0 for no effect and ±100 for the full control effect.
row,Structure (SMILES),activity change
1,CC1CCN(C(=O)c2ccccc2NC(=O)c2cccc(S(=O)(=O)N(C)C)c2)CC1,inactive: 5.96%
2,Nc1c(OS(=O)(=O)c2ccccc2)cccc1OS(=O)(=O)c1ccccc1,inconclusive: -36.4%
3,COc1ccc(OC)c(-c2csc(NC(=O)CSc3ccccc3)n2)c1,inconclusive: -32.1%
4,CCN(Cc1cnn(C)c1)C(=O)c1ccc(OC2CCN(S(=O)(=O)N(C)C)CC2)cc1,active: -68.3%
5,O=C(CSc1ccc(Cl)cc1)Nc1cccc(-c2nc3ncccc3o2)c1,inconclusive: -41.7%
6,COc1cccc(Nc2nc(C(N)Cc3ccc(C(F)(F)F)cc3)cs2)n1 (stereo not drawn),inconclusive: -36.9%
7,Cc1cc(C)cc(NC(=O)c2ccc(CSc3nnnn3C)cc2)c1,active: -52.8%
8,CCCc1c(-c2cccc(Br)c2)ncn1Cc1cccc(-c2ccccc2)c1,inactive: 19.9%
9,O=C(NCCN1CCN(c2ccccc2F)CC1)C1CC(=O)N(C2CCCC2)C1 (stereo not drawn),inactive: 5.96%
10,COc1c2ccoc2cc2oc(=O)ccc12,inactive: -9.28%
11,Cc1ccc(Oc2nc3c(C)cccn3c(=O)c2/C=C(\C#N)C(N)=O)cc1,inconclusive: -35.3%
12,CCc1cc(C(=O)Nc2ccc(S(=O)(=O)NC3=NCCCCC3)cc2)sc1C,inconclusive: -41.8%
13,CC(NCc1cccc(OCc2ccccc2)c1)C(O)c1ccccc1 (stereo not drawn),inconclusive: -43%
14,COC(=O)c1nnn(CC(=O)NC(=O)Nc2ccccc2)c1C(=O)OC,active: -70.1%
15,CCCc1[nH]nc2c1C(c1ccc(OC(=O)c3ccco3)cc1)C(C#N)=C(N)O2 (stereo not drawn),inconclusive: -31.7%
16,O=C(CN1CCC(Cc2ccccc2)CC1)NC(=O)NCc1ccccc1,active: -51.8%
17,Cc1cc(C=O)c(C)c2c1[nH]c1ccccc12,active: -57.1%
18,COc1cccc(/C=C2/CN(C)CC3=C2OC(N)=C(C#N)C3c2cccc(OC)c2)c1 (stereo not drawn),inconclusive: -39.5%
19,Clc1ccc(-c2csc3ncnc(Cl)c23)cc1,active: -88.6%
20,O=C(CN1C(=O)NC2(CCCCC2)C1=O)NCCc1ccccc1,inactive: 13.2%
21,CCCCN(C)C(=O)C1CCN(Cc2ccc(OCc3ccccc3)cc2)CC1,inconclusive: -40.8%
22,COc1cc2c(cc1NC(=S)NC(=O)/C=C/c1ccc(OC)c(OC)c1)oc1ccccc12,inactive: 23.3%

row,Structure (SMILES),activity change
1,O=C(c1ccc(Br)o1)N1CCN(c2ccc(F)cc2)CC1,inconclusive: -42.1%
2,CCN1CCN(S(=O)(=O)c2ccc(Cl)c(C(=O)N(CC)Cc3ccccc3)c2)CC1,inactive: -4.51%
3,COc1cc(-c2c(-c3ccc4c(c3)OCO4)noc2-c2ccsc2)ccc1F,inactive: -16.5%
4,COc1ccc(NC(=O)Cn2nnc(-c3ccccc3NC(=O)c3cccs3)n2)cc1,inactive: -4.72%
5,COc1cc(C)c(C)cc1S(=O)(=O)N1CCN(Cc2ccc3c(c2)OCO3)CC1,inactive: -8.74%
6,CCn1c(=O)c2c(cnn2C)c2ccccc21,inactive: -5.41%
7,CCOC1=C2CN(S(=O)(=O)c3ccc(C)cc3)C(c3cccc(Cl)c3)CC2N(S(=O)(=O)c2ccc(Cl)cc2)C(c2ccccc2)C1 (stereo not drawn),inactive: 13.3%
8,Cc1ccc(S(=O)(=O)CCC(=O)N2CCN(c3ccccc3O)CC2)cc1,inconclusive: -33.6%
9,CCC(=O)N1N=C(c2cccs2)CC1c1ccc(C)cc1 (stereo not drawn),inactive: -7.99%
10,Cn1cccc1/C=C(\C#N)c1ccccc1,inconclusive: -30.2%
11,COc1ccc2cc3c(N)nn(C(=O)c4ccc(F)cc4)c3nc2c1,inconclusive: -43.4%
12,Cc1c(Nc2nc(-c3ccc(Cl)cc3)cs2)c(=O)n(-c2ccccc2)n1C,inconclusive: -33%
13,CCc1ccc(NC(=O)Cn2nc(C(F)(F)F)c3c2CCC3)cc1,inconclusive: -33.5%
14,COc1ccc(CN(C(=O)c2snc(C(N)=O)c2N)C(C(=O)NC2CCCC2)c2ccco2)cc1 (stereo not drawn),inconclusive: -39%
15,COc1cc(NC(=O)c2ccc(Cl)cc2)c(OC)cc1Cl,inactive: 3.26%
16,COc1ccc2nc3oc(C(=O)N4CCCCC4)cc3cc2c1,inconclusive: -35%
17,O=C1c2cccc3cc([N+](=O)[O-])cc(c23)C(=O)N1CCN1CCCC1,active: -97.9%
18,Oc1ccc(/C=N/Nc2ccnc3cc(Cl)ccc23)c(O)c1,inconclusive: -33.5%
19,CNC(=S)N(CCc1c(C)[nH]c2ccc(Cl)cc12)Cc1cccnc1,inconclusive: -37.5%
20,COc1ccc(-c2csc(NC(=O)c3ccc(N4C(=O)CCC4=O)cc3)n2)cc1OC,inconclusive: -36.4%
21,COc1ccc2oc(=O)c(-c3csc(Nc4cccc(O)c4)n3)cc2c1,active: -79.3%
22,CCc1nc2c(OCc3ccc(OC)cc3)cccn2c1N(C)C(=O)c1ccco1,inactive: -8.02%

row,Structure (SMILES),activity change
1,COc1ccc(C(CNC(=O)CN2C(=O)NC(C)(c3ccc4ccccc4c3)C2=O)N2CCCC2)cc1 (stereo not drawn),inconclusive: -31.1%
2,O=C(NCc1cccs1)c1ccc2c(c1)ncn2C1CCCC1,inconclusive: -35.8%
3,Cc1ccc(C)c(-c2nnc(NC(=O)C3=COCCO3)o2)c1,inactive: -4.03%
4,Cc1ccc(-n2cc(CN3CCCN(C=O)CC3)c(-c3ccc(F)cc3)n2)cc1,inconclusive: -43.9%
5,CSCCNCc1cn(-c2ccc(F)cc2F)nc1-c1ccccc1C,inconclusive: -35.9%
6,CCOC(=O)c1c(C)[nH]c(C)c1C(=O)CSc1nc2ccccc2n1CC,inactive: -25.4%
7,CCC(CC)C(=O)N=C1SC2CS(=O)(=O)CC2N1CCc1ccc(OC)cc1 (stereo not drawn),inconclusive: -40.4%
8,Cc1ccc(-c2[nH]nc(N)c2N=Nc2ccccc2C)cc1,inconclusive: -37.6%
9,Cc1cccc(C)c1OCc1cc(C(=O)N2CCC(c3ccccc3)CC2)no1,inconclusive: -32.1%
10,O=C(c1ccc2c(c1)OCCO2)N1CCN(Cc2ccccc2)CC1,inconclusive: -37.4%
11,COc1ccc(-c2ccc(CCC(=O)O)o2)cc1,inconclusive: -36.2%
12,CC(C)OC(=O)N(C)c1ccc(C(O)(C(F)(F)F)C(F)(F)F)cc1,inconclusive: -47.4%
13,CCOc1nc(-c2ccc(C)cc2)ccc1-c1noc(COC)n1,inactive: 42.3%
14,O=C(Nc1ccccc1F)c1ccc(S(=O)(=O)N2CCCCCC2)cc1,inconclusive: -35.7%
15,CCN(CC)S(=O)(=O)c1cccc(C(=O)/C=C2/N(C)c3ccccc3C2(C)C)c1,inconclusive: -40.4%
16,O=C(O)c1nn2c(C(F)(F)F)cc(-c3cccs3)nc2c1Cl,inactive: -7.85%
17,O=C1CC(c2cccc(Cl)c2)CC(O)=C1C=Nc1ccccc1 (stereo not drawn),inconclusive: -46.3%
18,CCOCCCN(Cc1ccco1)S(=O)(=O)c1csc(C(N)=O)c1,inactive: 28.7%
19,Cc1ccc(Oc2ccccc2/C=C2\SC(=O)N(C)C2=O)cc1,inconclusive: -42.3%
20,COc1cccc(CNc2ccc([N+](=O)[O-])cc2Cl)c1O,inconclusive: -48%
21,CCOC(=O)C1(CCCc2ccccc2)CCN(C(=O)CN2C(=O)CSC2=O)CC1,inactive: 23.5%
22,CCOC(=O)CN(c1cc([N+](=O)[O-])ccc1OC)S(C)(=O)=O,active: -60.4%

row,Structure (SMILES),activity change
1,CCN(CC(=O)Nc1ccc2c(c1)OCCO2)Cc1cc(=O)n2ccsc2n1,inactive: 0%
2,c1ccc(CCn2nnnc2C(c2cccs2)N2CCN(Cc3ccc4c(c3)OCO4)CC2)cc1 (stereo not drawn),inconclusive: -33.8%
3,Cn1nnnc1SCC(=O)Nc1nc(-c2ccc(F)c(F)c2)cs1,inactive: 0%
4,CC1CC(C)CN(S(=O)(=O)c2ccc(NC(=O)C3CSC4(C)CCC(=O)N34)cc2)C1 (stereo not drawn),inconclusive: -42.5%
5,CCCc1cc(=O)oc2cc(OC3CCCCC3=O)ccc12 (stereo not drawn),inconclusive: -35.8%
6,Cc1ccc(NS(=O)(=O)c2ccc3c(c2)CC(=O)N3)c(C)c1,inconclusive: -30.1%
7,C/C(=N/NC(=O)c1ccc(C)s1)c1ccncc1,inconclusive: -30.4%
8,CCOc1ccccc1CN1CCNC(=O)C1CC(=O)NCCCn1cccn1 (stereo not drawn),inactive: -2.97%
9,O=C(Nc1cc(C(F)(F)F)ccc1-n1cncn1)c1ccc([N+](=O)[O-])o1,active: -94.4%
10,CCCCSc1nc(N)c(C#N)c(-c2cccs2)c1C#N,inconclusive: -43.9%
11,Nc1c2c(nc3ccn(-c4ccccc4)c(=O)c13)CCCCC2,active: -58.3%
12,O=C(NCC(c1ccco1)N1CCCC1)c1sc2ccccc2c1Cl (stereo not drawn),inactive: 13.5%
13,COc1cc2c(c(OC)c1OC)C(c1ccc(O)cc1)CC(=O)O2 (stereo not drawn),inactive: 19.2%
14,O=S(=O)(c1cccs1)N1CN(Cc2ccccc2)c2nc3ccccc3nc21,inconclusive: -34.8%
15,Cc1cccc(Oc2nc(CN3CCOCC3)nc3sc4c(c23)CCCC4)c1,inconclusive: -49.2%
16,CSc1cccc(NC(=O)CCc2ccccc2)c1,inconclusive: -42.6%
17,COc1ccc(-n2c(SCC(N)=O)nnc2-c2cccnc2)cc1,inconclusive: -30.6%
18,CC(=O)Nc1ccc(S(=O)(=O)N2CCC(c3nnc(-c4ccc(C)cc4)o3)CC2)cc1,inactive: -14.4%
19,O=C(COc1ccc(Cl)cc1)Nc1ccc(Cc2ccncc2)cc1,active: -71.3%
20,c1ccc2c(c1)OC(CCCN1CCCCC1)c1ccccc1S2 (stereo not drawn),inconclusive: -36.3%
21,CCn1c(N2CCN(C(=S)NCCc3ccccc3)CC2)nc2ccccc21,inconclusive: -39.6%
22,CCOC(=O)C1=C(CN2CCc3ccccc32)NC(=O)NC1c1cccc([N+](=O)[O-])c1 (stereo not drawn),inconclusive: -30%
